Sequences with one replicate were seen in a single cluster, so their values are uncertain.
System: ATP
Assay: switch fluorescence ratio, 500 uM ATP over buffer (Cy3 cluster intensity, sum of 5 cycles each) (fold (ratio)); higher = stronger signal-on switching upon ATP binding; sequences stand for … in TCGTCGGCAGCGTCAGATGTGTATAAGAGACAGTTTTTTTTTTTTTTTTTTTTTTTTT…TC
Details: aptamer strand: ATP DNA aptamer (quencher-CACCTGGGGGAGTATTGCGGAGGAAGG + anchor), 100 nM annealed; ATP concentration: 500 uM; one replicate
Procedure, shortened: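 The quencher-labelled ATP aptamer, at 100 nM, was annealed to Cy3-labelled switching-strand clusters on a modified Illumina MiSeq flow-cell. The clusters were imaged in selection buffer, then after 15 min with 500 uM ATP at 22 °C, and this buffer/ATP cycle ran five times with NaOH stripping and re-annealing between runs. Per-cluster fluorescence ratios, summed target-cycle over summed buffer-cycle Cy3 intensity, were averaged per switch-domain sequence. Clusters outside 100-1000 RFU were excluded.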
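Further: ATP exposure 15 min at 22 °C before imaging.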

Row | Sequence | switch fluorescence ratio
1 | ACTGGGCCCC | 1.02
2 | CGTTTGGATA | 1.07
3 | GTTTGGTCCA | 0.97
4 | GTTGAAGCTT | 0.971
5 | CGTCTACGAT | 1.02
6 | CGAATTCCCA | 1.01
7 | AGCTGTGGGG | 0.991
8 | GTGACCTTAT | 1.07
9 | CGTAATAGTG | 1.15
10 | TGAGCCAAGG | 1.06
11 | TACTTCCCAT | 1.11
12 | TCTCACATTG | 0.987
13 | ACTCTCCTAT | 1.01
14 | TGGTCCGTTG | 0.992
15 | TAAAGGATA | 0.99
16 | GATCCAGCAC | 1.34
17 | CGAGAATGTG | 1
18 | GATTCAAACT | 0.994
19 | GGTAAAAAGA | 1.02
20 | AGGCACATGA | 1.06
21 | TGCGATTTCA | 0.999
22 | CCTATCGGTC | 1.25
23 | GATAGAGGGC | 0.953

Row | Sequence | switch fluorescence ratio
24 | AGTGGCGGAG | 1.04
25 | CGGGGAGCAG | 0.979
26 | ATGATGGAGC | 0.922
27 | TGGTCGTTT | 0.979
28 | TGGGGTCAA | 1.56
29 | AACTCGGCGC | 1.07
30 | GAGAGGTGTG | 0.992
31 | CAATAAATGT | 1.05
32 | ATCATGGTTC | 1.02
33 | CCGGGCGCG | 1.17
34 | ATAAACTTAG | 1.05
35 | AGGGAGCGTC | 0.974
36 | CTGCCGGGCC | 0.987
37 | GAACTACGGG | 1.02
38 | ATTAAACAGC | 0.964
39 | TTAAACCTAT | 1.02
40 | ACGGAGGAGT | 1.04
41 | ATCAGCGAGT | 0.989
42 | TCGCAGGCCC | 3.25
43 | GTCTGAGTTT | 1.01
44 | GGAGGACCTG | 0.978
45 | TCAGGTAACG | 1.06
46 | TTCCTTGAGG | 0.975

Row | Sequence | switch fluorescence ratio
47 | TCAGGATGAC | 1.04
48 | ATTCCCCGT | 1.15
49 | GGCTCAGGG | 1.01
50 | TATAGTTAGC | 0.972
51 | TAAACTGTGC | 1
52 | GCTGCATCAG | 1
53 | CCTATAAGCG | 1.12
54 | AGCCCGTATT | 1.02
55 | ATCTGGGCTA | 1.04
56 | GCTCAGAAGA | 0.967
57 | GGTACCAACC | 1
58 | TTTGTTGTCG | 0.971
59 | GTGGCGTAAA | 1.02
60 | TTACTAATCA | 1.03
61 | TTACTCGGAC | 1.06
62 | GGGTCAGCCC | 1.02
63 | AATGCGAACG | 1.01
64 | TGGCGGCCGG | 0.964
65 | ACGTCCAATG | 1.03
66 | ATGGTAAAAC | 1.04
67 | GGAAATTCTA | 1.03
68 | AAGCGTGGG | 1.03
69 | ATCGCTGTGG | 1.02

Row | Sequence | switch fluorescence ratio
70 | CTAAAATCGA | 0.982
71 | GATTGAAAAG | 1.03
72 | ATAGCATTTA | 1.05
73 | ACGGCGCTGC | 1.19
74 | ATAGTAAGCA | 1.03
75 | ATAATCGGTA | 0.95
76 | TGAACTTTAC | 1.26
77 | AGAGAAAAGT | 0.998
78 | GAATTACCGG | 1.01
79 | GCGTGTTTGG | 1.02
80 | TTCTAAGGT | 1.06
81 | GGATGTGGCA | 0.994
82 | GACCATGTTG | 1.03
83 | AGAATCTTTG | 0.955
84 | TCCTAATGGT | 1.02
85 | TCTTGCGGAA | 1.21
86 | TGGATTGTGC | 0.871
87 | ACTGTTCAAC | 1.02
88 | CGATGCGTAT | 1.01
89 | GCCTGATAAC | 1.01
90 | CGGGACTTTG | 1.01
91 | GGATCCAGGT | 1.05
92 | AAATGAGAG | 1

Row | Sequence | switch fluorescence ratio
93 | TATTACGTCT | 1.01
94 | ATTACGAGTT | 0.983
95 | GCGGATGACC | 0.961
96 | AGCATTAACC | 1.13
97 | AGTTCGGCAC | 1.03
98 | ACGGGGTTAA | 1.03
99 | GAGTGAGGTA | 0.977
100 | ATAAGAGTTT | 0.985
101 | ACCGTACCGC | 1.7
102 | CGTTTTAGGA | 0.949
103 | CAATTCCGT | 1.15
104 | TAACGCCGCG | 1.06
105 | CATCTAGCGA | 2
106 | GATGAGGGA | 1.03
107 | AAAGCGGTGC | 1.22
108 | ACCAAGCTCC | 1.27
109 | ACCCATGTC | 1.09
110 | CGTTCTTCTG | 0.983
111 | AGGTTGTGGA | 0.976
112 | GCACACGTCG | 0.97
113 | CGTACTCTGG | 0.983
114 | CCGTTAGCAT | 4.34
115 | TTTGGAACCC | 1.04

Row | Sequence | switch fluorescence ratio
116 | TCCGGGCGGT | 1.08
117 | AGGAACGCAT | 1.23
118 | CGCCTTCGAC | 1.3
119 | CAGACGTTTG | 0.991
120 | TATAGATGGT | 0.96
121 | TTCGACTACA | 0.993
122 | AGCTGGATAT | 0.953
123 | TGAGAAATAG | 1.1
124 | ATGAAGTCGG | 0.986
125 | CCAAGGGCGG | 1.01
126 | GCCGGGTGAC | 1.1
127 | GTCAAATATA | 1.03
128 | CGTCGGTGAG | 0.966
129 | GTTGGACCAC | 0.995
130 | GAACAAGCTT | 0.956
131 | TTACCCGGCC | 1.15
132 | GAGTCCAGTC | 0.986
133 | CAGGATACAC | 1.06
134 | TTAAGGTTCA | 1.06
135 | TGAAATGAGA | 0.991
136 | GATCCAAGAA | 1.04
137 | GGCTAAAAT | 1.01
138 | TCTAAGGTCC | 1

Row | Sequence | switch fluorescence ratio
139 | ACCTGCATGC | 1.98
140 | ATTTCACACG | 1.04
141 | CGTATGTAGC | 0.929
142 | GAAGGCTTTT | 0.988
143 | GACGTTCAGG | 0.995
144 | CCGGGACCTG | 0.991
145 | CGTGAAGTGT | 1.02
146 | TAAACAGGCT | 1.05
147 | CCCTCAAACG | 1.02
148 | ACTGGGTCCC | 1.01
149 | GACACGGTAC | 2.18
150 | GGAACCATGG | 1.02
151 | GGCAGACACT | 1.01
152 | ACCACGATAA | 1.23
153 | ACTGACCTGT | 1.1
154 | GCGCGCCGT | 0.957
155 | GCGTGTGCAG | 1.04
156 | TCAGTCTTAG | 1.04
157 | CGACGGCGGG | 1.03

— the supplement of paper PMC10126150
